The values that follow come from the RNAGym collection of RNA variant scans (doi:10.1093/nar/gkz1192).

Read counts are not given, so values of variants with three or more changes are uncertain.

The labels stand for the following.
B1: CPEB3 Ribozyme (parent)
chain: UAACAGGGGGCCACAGCAGAAGCGUUCACGUCGCAGCCCCUGUCAGAUUCUGGUGAAUCUGCGAAUUCUGCUGUAUAUCUC

In this data set the parent is B1. The data set is described as follows: self-cleavage, relative activity (ratio to wild type); higher = more cleavage; in vitro, sequencing. The procedure, abridged: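 For each CPEB3 ribozyme variant, relative activity is its cleaved/total read fraction divided by the unmutated ribozyme's. Barcoded error-prone PCR libraries were transcribed by T7 RNA polymerase (5 hours, 37°C) and held in DNase I for 15 min before an EDTA stop, with cleavage occurring throughout. Template-switching reverse transcription and Illumina sequencing were used to read the RNAs. A 5-read minimum applied, and results are the mean of three batches.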
Consider UAACAGGGGGCCACAGCAGAAGCGCUCACGUCCCAGCCCCUGGCAGAUUCUGGAGAAUCUGCGAAUUCUGCUGUAUAUCUC [U25C G33C U43G U54A], for which the self-cleavage was 0.07.

For the variant UAACAGGGGGCCACAGCAGAAGCGCUCACGUCACAGCCCCUGUCAGAUUCUGGUGAAUCUGCUAAUUCUGCUGUAUAUUUC [U25C G33A G63U C79U], the self-cleavage was 0.

UAACAGGGGGCCACAGCAGAAGCGCUCACGUCGAAGCCCCUGUCAGGUUCUGGUGAAUCUGCGAAUUCUGCUGUAUAUAUC [U25C C34A A47G C79A]: the self-cleavage was determined as 0.23.

For UAACAGGGGGCCACAGCAGAAGCGCUCACGUCGCAGACCCUUUCAGAUUCUGGUGAAUCUGCGGAUUCUGCUGUAAAUCUC [U25C C37A G42U A64G U76A], the self-cleavage came out at 0.04.

Regarding UAACAGGGGGCCACAGCAGAAGCGCACACGUCGCGGCCCCUGUCAGAUUCUGGUGAAUCUGCGAAUUCUGCUGUAUAUCAC [U25C U26A A35G U80A], the self-cleavage was determined as 0.5.

For the variant UAACAGGGGGCCACAGCAGAAGCGCUCACGUCGCAGCCCCUGUCAGAUUCUGGUGAAUCUGAGAAUUCUGCUGUAUACCUC [U25C C62A U78C], the self-cleavage came to 0.14.

For the variant UAACAGGGGGCCACAGCAGAAGCGCUCACGUCGCAGCCCCUGUCAGAUUCUGGUGAAUCUGCUAAUUUUGCAGUAUAUCUC [U25C G63U C68U U72A], the self-cleavage worked out at 0.19.

As for UAACAGGGGGCCACAGCAGAAGCGCUCACUUCGCAGCCCCCGUCAGAUUCUGGUGAAUCUGCGAAUUCUGCUGUUUAUCUC [U25C G30U U41C A75U], the self-cleavage was 0.34.

As for UAACAGGGGGCCACAGCAGAAGCGCUCACGUCGCAGCCCCUGUCAGAUUCUGGUUAAUCUGCGGAUUCUGCCGUAUAUCUC [U25C G55U A64G U72C], the self-cleavage was determined as 0.57.

For UAACAGGGGGCCACAGCAGAAGCGCUCACGUCGCAGCUCCUGUCAGAUUCUGGUGAAUCUGCGGAUUCUGCUGUAUAUCUC [U25C C38U A64G], the self-cleavage worked out at 0.25.

As for UAACAGGGGGCCACAGCAGAAGCGCUCACGUCGCAGUCCCUGUCAUAUUCUGGUGAAUCUGCGAAUUCUGCUGUAUAUCUC [U25C C37U G46U], the self-cleavage is 0.21.

With UAACAGGGGGCCACAGCAGAAGCGCUCACGUCGCAGCCCCUGUCAGAUUCUGGUGAAUCUGUGAAUUCUGCUGUAUACCUC [U25C C62U U78C], the self-cleavage was 0.1.

Take UAACAGGGGGCCACAGCAGAAGCGCUCACGUCGCAGCCUUUGUCAGAUUCUGGUGAAUCUGCGAAUUCCGCUGUAUGUCUC [U25C C39U C40U U69C A77G]: the self-cleavage was determined as 0.12.

Consider UAACAGGGGGCCACAGCAGAAGCGCACCCGUCGCAGCCCCUGUCAGAUUCCGGUGAAUCUGCGAAUUCUGCUGUAUAUCUC [U25C U26A A28C U51C], for which the self-cleavage worked out at 0.36.

Regarding UAACAGGGGGCCACAGCAGAAGCGCUCACGUCGCAACCCCUGUCAGAUUCAGGUGAAUCUGCGAAUUCCGCUGUAUAUCCC [U25C G36A U51A U69C U80C], the self-cleavage was found to be 0.06.

For the variant UAACAGGGGGCCACAGCAGAAGCGCUCACGUCCCAGCCCCUGUCAGAUACAGGUGAAUCUGCGAAUCCUGCUGUAUUUCUC [U25C G33C U49A U51A U67C A77U], the self-cleavage is 0.11.

As for UAACAGGGGGCCACAGCAGAAGCGCUCACGUCGCAGCCCCUGUCAGAUUCUGAAGAAUCUGCGAAUUCUGCUGUAUAUCUC [U25C G53A U54A], the self-cleavage was 0.37.

As for UAACAGGGGGCCACAGCAGAAGCGCUCACGUCGCAGCCCUUGUCAGAUUCUGGUGAAUCUGCGAAUACUGCUGUAUAUCUC [U25C C40U U67A], the self-cleavage worked out at 0.2.

In the case of UAACAGGGGGCCACAGCAGAAGCGCUCACAUCGCUGCCCCUGUCAGAUUCUGGUGAAUCUGCGAACUCUGCCGUAUAUCUC [U25C G30A A35U U66C U72C], the self-cleavage came out at 0.13.

As to UAACAGGGGGCCACAGCAGAAGCGCUCACGUCGCAGCCCCUGUCAGAUUCUGGUGAAUCUGCGAAUUCUACCGUAUAUCUC [U25C G70A U72C], the self-cleavage was determined as 0.1.

Turning to UAACAGGGGGCCACAGCAGAAGCGCUCACGUCUCAGCCCCUGUCAGAUCCUGGUGAAUCUGCAAAUUCUGCUGUAUAUCUC [U25C G33U U49C G63A], the self-cleavage came to 0.15.

For the variant UAACAGGGGGCCACAGCAGAAGCGCUCACGUCACAGCCCCUGUCAGACUCUGGUGAAUCUGCGAAUUCUGCUGUUUACCUC [U25C G33A U48C A75U U78C], the self-cleavage was 0.12.

UAACAGGGGGCCACAGCAGAAGCGCUCACGUCACGGCCCCUGUCAGAUUCUGGUGAAUCUGCGAAUUCUGCUGUAUAUCUC [U25C G33A A35G]: the self-cleavage was found to be 0.15.

As to UAACAGGGGGCCACAGCAGAAGCGCUCACGUCGCAUCCCCUGUCAGAUUCUGGUGUAUCUGCGAAUUCAGCUGCAUAUCUC [U25C G36U A56U U69A U74C], the self-cleavage stood at 0.06.

UAACAGGGGGCCACAGCAGAAGCGCUCACGUCGCAGCCACUGUCGGAUUCUGGUGAAUCUGCGAAUUCUGCUGCAUAUCUC [U25C C39A A45G U74C]: the self-cleavage was 0.2.

In the case of UAACAGGGGGCCACAGCAGAAGCGCUCACGUCGCAGCCCCUGUCAGAUUCUGGUAGAUCUGCGAAUUCUGCUGUAUAUCUC [U25C G55A A56G], the self-cleavage stood at 0.16.

For UAACAGGGGGCCACAGCAGAAGCGCUCACGUCUCAGCCCCCGUCAGAUUCUGGUGGAUCUGCGAAUUCUGCUGUAUAUCUC [U25C G33U U41C A56G], the self-cleavage is 0.36.

UAACAGGGGGCCACAGCAGAAGCGCUCACGUCGCAGACCUUGUCAGAUCCUGGUGAAUCUGCGAAUUCUGCUGUAUAUCUC [U25C C37A C40U U49C]: the self-cleavage turned out to be 0.18.

As to UAACAGGGGGCCACAGCAGAAGCGCUCACGUCGCAGCCCUUGUCAGAUUCAGGUGAAUCUGCGAAUUCUGUUGUAUAUCUC [U25C C40U U51A C71U], the self-cleavage turned out to be 0.08.

As to UAACAGGGGGCCACAGCAGAAGCGCUCACGUCGCAGACCCUGUCAGAUUCUGGUGAAUCAGCGAAUUCUGUCGUAUAUCUC [U25C C37A U60A C71U U72C], the self-cleavage was 0.04.

On to UAACAGGGGGCCACAGCAGAAGCGCUCACGUCGUAGCCCCUGUCAGAUUCUGGUGAAUCUGCGAAUUCUGCUGUAUUUCUC [U25C C34U A77U], for which the self-cleavage worked out at 0.09.

In the case of UAACAGGGGGCCACAGCAGAAGCGCUCACGUCGCAGCCACUGUCAGAUUCUGGUGAAUCUGCGUACACUGCUGUAUAUCUC [U25C C39A A64U U66C U67A], the self-cleavage was determined as 0.07.

For the variant UAACAGGGGGCCACAGCAGAAGCGCUCACGUCGAAGCCCCAGUCAGAUUCUGGUGAGUCUGCGAAUUCUGCUGUAUAUCUC [U25C C34A U41A A57G], the self-cleavage was 0.21.

In the case of UAACAGGGGGCCACAGCAGAAGCGCUCACGUCGCAGCCCCUGUCAAGUUCUGGUGAAUCUGCGAAUUCUGGUGUAUAUCUC [U25C G46A A47G C71G], the self-cleavage was 0.08.
